# Experimental data: the supplement of paper PMC4466236
# Whole data set: some 33,000 sequences, median “E-score (dimensionless, -0.5 to 0.5)” near -0.058, cut for the highest 2% near 0.35. The list shows a part of the results.
# Tested on: MvaT
# Test: PBM 8-mer E-score (mean of HK and ME arrays) (E-score (dimensionless, -0.5 to 0.5)); higher = stronger relative binding preference; most listed sequences are background and not binding sites
# Procedure, shortened: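 Full-length P. aeruginosa MvaT, with glutathione S-transferase fused to its N-terminus (cloned into pTH6838 by isothermal assembly), was tested by protein binding microarray using a previously described protocol. Two universal double-stranded 60-mer arrays (ME and HK) were used, each with a constant 25-mer primer region and a variable 35-mer region covering all 8-mers. The rank-based 8-mer E-score (-0.5 to 0.5) is the mean of the two arrays, parsed with a custom Python script.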
row,Sequence,PBM 8-mer E-score
1,ACCAATAT,0.282
2,CAGACTAA,-0.00354
3,CGGCTCTA,-0.0831
4,AGTACGCA,-0.0531
5,AAGAGACG,-0.137
6,CGCCAAGC,-0.272
7,ACCTCGCA,-0.0477
8,AACAGCAA,0.124
9,AACCGTGA,-0.0423
10,ACACACGC,-0.141
11,CTGCAACA,-0.0226
12,CCTGTGTA,-0.0928
13,ATCTATCA,0.164
14,AAGATATA,0.419
15,AGAGATAC,-0.000518
16,AGGGTGTC,-0.156
17,CAGGAGAG,-0.196
18,AGAGCAAA,0.0556
19,CCAAGAGG,-0.282
20,GTCTGCTA,-0.157
21,CCCCCTCG,-0.353
22,CAAGACCA,-0.0823
23,ATAGAATA,0.314
24,AAGGAGGC,-0.228
25,CATGACGC,-0.222

row,Sequence,PBM 8-mer E-score
1,ACTTCTGC,0.0207
2,ATTATGGG,0.207
3,CGTCGGCC,-0.384
4,GAGCCTTA,-0.229
5,GACTTGGC,-0.156
6,ATGACAAG,0.000949
7,GTCATTCA,-0.0469
8,GCAAAACA,0.0104
9,GTACGTAC,-0.0487
10,CGCGGGGA,-0.22
11,ACCCGTAA,0.149
12,CCCTCGAC,-0.287
13,AATACTAT,0.297
14,AGTATATC,0.259
15,ATGTAGGA,0.0586
16,CGGTTTTC,-0.112
17,ATCGACAT,-0.11
18,CGTAACTA,0.131
19,AAAAGAGC,-0.0652
20,CGTTCGGC,-0.146
21,CTACCATC,0.0334
22,AGAGCTTA,-0.124
23,ATCTCATA,-0.00882
24,CCCGGAAC,-0.119
25,AACTGTAA,0.248

row,Sequence,PBM 8-mer E-score
1,GAGGCCGC,-0.271
2,GCTGCACC,-0.3
3,CGCATTAC,-0.128
4,ACCTCATC,-0.114
5,CGGGCTTA,-0.116
6,CGGACCCG,-0.216
7,CCCGTGTA,-0.0703
8,CAGAGCGG,-0.251
9,CCTGCCTA,-0.146
10,AGTTGTTG,0.223
11,ATATACTA,0.422
12,AAGAAACG,-0.00721
13,TCAGTCGA,-0.102
14,CCTGAGAA,0.0172
15,GACATGTC,-0.113
16,AAAAAACA,0.206
17,ACCCGGAC,-0.265
18,ATTATCTA,0.269
19,GTTATGCA,0.214
20,GGCTACCC,-0.286
21,GGATCCGA,-0.181
22,ATCATACC,0.048
23,GAAGGCGA,-0.262
24,ACACCAGG,-0.0463
25,AAATCAAC,0.0396

row,Sequence,PBM 8-mer E-score
1,CTCGCTCC,-0.221
2,AGGTATTC,-0.0798
3,ACGCGGGC,-0.202
4,AATACGCA,0.0135
5,AGCGAGCA,-0.14
6,GTCGCCTA,-0.0923
7,CGAGCCAA,-0.224
8,CCACGGAC,-0.062
9,AGCGGGTG,-0.0873
10,GATTACAC,0.18
11,GCAAGGGA,-0.27
12,ACCTTCAC,-0.0816
13,ATATTATC,0.439
14,CTAGGCCC,-0.265
15,AGTCGCTA,-0.105
16,CATAGCCA,-0.247
17,GACCGTAC,-0.209
18,CACTGAAA,0.0505
19,ATGTCCAC,0.0955
20,ATCCTATA,0.189
21,GTGGGACA,-0.0255
22,CAAGTCCC,-0.185
23,ACGTCACC,-0.0844
24,CGATAATC,0.203
25,AGGCTACG,-0.289

row,Sequence,PBM 8-mer E-score
1,AGTTTTAA,0.259
2,GTAAAAAC,0.181
3,GCTCCCTA,-0.283
4,CCTAAACG,-0.0804
5,GCTCGGAA,-0.0572
6,ACCGAACG,-0.218
7,GCGCGAAA,-0.00383
8,AGCTGTGG,-0.223
9,AATGTAGG,0.101
10,CCCTAGAC,-0.259
11,AGTCCCTG,-0.155
12,GACTTCGC,-0.11
13,CTGTTTGA,0.0385
14,CGCTGTTC,-0.0932
15,TGGCTTAA,0.145
16,AAGGTTCA,-0.123
17,TCGCTAGA,-0.02
18,TAACTCTA,0.259
19,GCGCTAGA,-0.127
20,CAGAACAC,-0.0704
21,AGGCCGAC,-0.257
22,TTGGCCAA,-0.0832
23,AAGAGTAT,0.189
24,AGCACAGC,-0.139
25,CTGTCCGA,-0.0818

row,Sequence,PBM 8-mer E-score
1,CACAAGAC,-0.103
2,AACAGGCT,-0.216
3,CATATCCA,0.176
4,CAAATCCC,-0.0516
5,AAGCCTGG,-0.137
6,CCTGTGGC,-0.308
7,ATGGATCA,-0.0944
8,GCTTCTCC,-0.314
9,ACAGTGAC,-0.0911
10,CATCGGCG,-0.259
11,CGTCAATA,0.197
12,ATGCGGAC,-0.0939
13,CTGGTACC,-0.174
14,TTCGCCAA,-0.00624
15,GCATAAGA,0.0363
16,CTCTGGAC,-0.207
17,CTCGGCTA,-0.108
18,ATAGTACC,0.0557
19,AGACTCGA,-0.0278
20,ATTTGGCG,0.1
21,GGTACCAC,-0.183
22,ACTGTCCT,-0.0272
23,AATTTCGG,0.234
24,AAATTTTG,0.216
25,AGCACTGC,-0.245

row,Sequence,PBM 8-mer E-score
1,AAGTCAGC,-0.0121
2,ATTGCCAG,0.0835
3,AATACCAC,0.206
4,GAACTATC,0.105
5,CAGAACCG,-0.137
6,CTAATCCA,0.12
7,CAACAAAC,0.282
8,GTGCACAC,-0.00272
9,TAGCCCAA,-0.00206
10,ACACTCTG,-0.0366
11,CCGCCACC,-0.13
12,ACTCTGCG,0.0292
13,ATAGCGCG,0.135
14,GGCTGACA,-0.0719
15,CATTCGGC,-0.217
16,AGCGGTCA,-0.0602
17,TCTATTCA,-0.0033
18,ACCCGACT,-0.0208
19,GCGAATCC,-0.138
20,AAGCCGAG,-0.135
21,ACGAGAGG,-0.161
22,TACTTCTA,0.273
